About 1,700 (3.3%) of roughly 52,000 compounds were called active. Cut-off read from the data, not from the text of the source: active = survival mostly below about 52% (no sharp cut-off); inactive = mostly above about 56%. The list shows a part of the results.
system: Wild type; test: S. aureus survival, RN4220 and DeltatarO strains – OD600, teichoic acid synthesis inhibitors, primary screen (AID 463173); settings: S. aureus RN4220 wild type/DeltatarO growth, OD600, 18 h, stronger effect = lower value, screened at 18.75 µg/mL (by protocol)

Row | Structure (SMILES) | survival
1 | Cc1cccc(-c2nnn3c2nc(NCCC(C)C)c2ccccc23)c1 | inactive: 89%
2 | N#C/C(=C\c1ccc2c(c1)OCO2)c1ccccc1 | inactive: 109%
3 | O=C(CSc1nc2c([nH]c3ccccc32)c(=O)n1-c1cccc(C(F)(F)F)c1)N1CCCC1 | inactive: 78%
4 | CCOC(=O)c1cccc(NC(=O)C2(S(=O)(=O)c3ccc(C)cc3)CC2)c1 | inactive: 84%
5 | COc1cccc(C(=O)Nc2ccc(-c3nc4ccc(C)cc4s3)cc2)c1OC | inactive: 22%
6 | COc1cn(CC(=O)Nc2ccc(C)cc2C)c(CN2CCCCC2)cc1=O | inactive: 68%
7 | CCn1c2ccccc2c2cc(/C=N/NC(=O)Cc3cccs3)ccc21 | inactive: 108%
8 | CC(=O)c1ccc(NC(=O)/C=C/c2ccc(C)o2)cc1 | inactive: 65%
9 | CCCNC(=O)C1CCC(Cn2c(=O)c3sccc3n(CC(=O)N3CCCC(C)C3)c2=O)CC1 (configuration not stated) | inactive: 72%
10 | CCOc1cccc(C2c3c(oc4ccc(F)cc4c3=O)C(=O)N2CCOC)c1 (configuration not stated) | inactive: 71%
11 | COc1ccc(S(=O)(=O)NCC(c2ccc(N(C)C)cc2)N2CCCC2)cc1F (configuration not stated) | inactive: 73%
12 | CCOc1ccc(C(=O)NC2CCN(CC(=O)NCc3ccccc3)CC2)cc1 | inactive: 104%
13 | CC(=O)C1=C(c2ccc(C)cc2)N(C(C)=O)n2c(nnc2-c2ccccc2)S1 | inactive: 134%
14 | Cc1cccc(OCC(=O)NCC2(N3CCN(C)CC3)CCCCC2)c1 | inactive: 83%
15 | Cc1ccc(Cl)cc1N1CCN(S(=O)(=O)c2ccc3oc(=O)c4ncn(C)c4c3c2)CC1 | inactive: 104%
16 | CCc1ccc(OCC(=O)Nc2ccc(Cl)c(-c3nc4cc(C)cc(C)c4o3)c2)cc1 | inactive: 51%
17 | Cc1ccccc1Cn1cc(NC(=O)c2cc(-c3ccc(Cl)cc3)on2)cn1 | inactive: 104%
18 | Cc1[nH]c2ccc(C(=O)NCCc3ccccc3Cl)cc2c1C | inactive: 86%
19 | Cc1cccc(NC(=O)CN2C(=O)COc3ccc(S(=O)(=O)Nc4ccccc4)cc32)c1C | inactive: 123%

Row | Structure (SMILES) | survival
20 | S=C(Nc1ccccc1)Nc1ccccn1 | inactive: 114%
21 | Cc1ccc(S(=O)(=O)c2nnn3c2nc(NCc2ccc(F)cc2)c2sccc23)cc1C | inactive: 66%
22 | CC(C)OCCCn1c(=O)c2ccccc2n2c(-c3ccc(F)c(F)c3)nnc12 | inactive: 88%
23 | CCCS(=O)(=O)N1CC(=O)N(c2ccccc2C)C(C)(C(=O)NC2CCCCC2)C1 (configuration not stated) | inactive: 70%
24 | COc1ccc(Nc2cc(C(=O)NCc3ccccc3)c3ccccc3n2)cc1 | inactive: 112%
25 | Cc1nn(-c2ccc(N3CCCC3)nn2)c(C)c1CCC(=O)NCc1ccc(F)cc1 | inactive: 81%
26 | CCC1CN(C(=O)N2CCC(C(=O)NCc3ccc(C)o3)CC2)c2ccccc2O1 (configuration not stated) | inactive: 87%
27 | O=C(Cn1c(=O)n(Cc2ccc(F)cc2)c(=O)c2sc3ccccc3c21)NCc1ccccc1 | inactive: 88%
28 | Cc1ccc(OCCSc2nc3ccccc3n2CC(=O)N2CCCCC2)c(C)c1 | inactive: 71%
29 | Cc1nc2ccc(S(=O)(=O)N(CC(=O)Nc3cccc(C)c3C)Cc3ccccc3)cc2s1 | inactive: 70%
30 | Cc1ccc(C)c(Cn2c(C(C)NC(=O)c3ccccc3)nc3ccccc32)c1 (configuration not stated) | inactive: 88%
31 | O=C(Cn1c(=O)oc2cc(S(=O)(=O)N3CCCC3)ccc21)Nc1ccc(OC(F)(F)F)cc1 | inactive: 85%
32 | COc1ccc(-c2nc3sc(CCNC(=O)C(=O)Nc4ccc(C)cc4C)c(C)n3n2)cc1 | inactive: 82%
33 | Cc1ccc(NC(=O)C2CCC(CNS(=O)(=O)c3cccc4nsnc34)CC2)c(C)c1 (configuration not stated) | inactive: 81%
34 | O=C(CSC1=Nc2ccccc2C2=NC(Cc3ccccc3)C(=O)N12)Nc1ccccc1 (configuration not stated) | inactive: 91%
35 | O=C(NCc1noc2ccccc12)N1CCN(c2ccccc2F)CC1 | inactive: 85%
36 | COc1cccc(OCc2nc3ccccc3n2C)c1 | inactive: 84%
37 | O=C(CCn1cnc2onc(-c3ccc(F)cc3)c2c1=O)N1CCN(c2ccccc2)CC1 | inactive: 75%
38 | CCOc1cccc2cc(-c3nc(-c4ccc(Cl)cc4)c(C)s3)c(=O)oc12 | inactive: 79%

Row | Structure (SMILES) | survival
39 | COc1ccc(Cn2c(CCC(=O)Nc3cccc(Cl)c3)nc3cccnc32)cc1 | inactive: 132%
40 | Cc1nc(N2CCOCC2)c2c(C(=O)N3CCN(c4ccc(Cl)cc4)CC3)c(C)oc2n1 | inactive: 79%
41 | COc1ccc(-c2ccc(NS(=O)(=O)c3ccccc3Cl)cc2)nn1 | inactive: 84%
42 | COc1ccc(-c2nsc(NC(=O)c3cccc(OC)c3)n2)cc1 | inactive: 84%
43 | CCN(CC)CCNC(=O)c1ccc2c(=O)n3nc(Nc4cccc(Cl)c4C)sc3nc2c1 | inactive: 153%
44 | CCOc1ccc(C(c2c(C)[nH]n(-c3ccccc3)c2=O)c2c(C)[nH]n(-c3ccccc3)c2=O)cc1OC | inactive: 71%
45 | CCc1ccc(-c2cn3c(n2)sc2cc(C(=O)NCCCc4ccccc4)ccc23)cc1 | inactive: 79%
46 | CCc1nn2c(=O)cc(COC(=O)c3cccs3)nc2s1 | inactive: 89%
47 | CCOc1ccccc1CNC(=O)c1ccc2nc(CCc3ccccc3)oc2c1 | inactive: 84%
48 | CC(Oc1ccccc1)C(=O)Nc1ccc(C(=O)OCc2cc(=O)n3ccsc3n2)cc1 (configuration not stated) | inactive: 72%
49 | CC(=O)N/N=C/c1cc(C(C)C)cc(/C=N/NC(C)=O)c1O | inactive: 116%
50 | Cc1cccc(C(=O)NCC(=O)OCc2cc(=O)n3nc(C)sc3n2)c1 | inactive: 84%
51 | N#Cc1nc(/C=C/c2ccc(F)cc2)oc1N1CCCCC1 | inactive: 107%
52 | COC(=O)c1ccc(CN(Cc2ccc(OC)c(OC)c2)S(=O)(=O)c2ccc(F)c(C(=O)Nc3cc(C)ccc3C)c2)cc1 | inactive: 128%
53 | CCOc1ccccc1NC(=O)CN1Cc2ccccc2C1=O | inactive: 70%
54 | Cc1cc(-c2ccccc2)nc2cc(C(=O)Nc3cc(C(F)(F)F)ccc3Cl)nn12 | inactive: 72%
55 | COc1ccc(CNC(=O)c2ccc3c(Cl)c4c(nc3c2)CCCC4)c(OC)c1 | inactive: 117%
56 | Cc1cccc(Nc2cc(C)nc3nc(Cc4ccc(Cl)cc4)nn23)c1 | inactive: 42%
57 | CCOC(=O)c1ccc(NC(=O)Cn2cc(S(=O)(=O)Cc3ccccc3F)c3ccccc32)cc1 | inactive: 75%

Source: PubChem BioAssay AID463173 (ICCB-Longwood Screening Facility, Harvard Medical School, 2010)
